Assay results published in US20250304706A1 (Astellas, published 2025).

B1: BTE-0003 (bispecific antibody)
chain 1: QVQLVESGGGVVQPGGSLRLSCAASGFTFSSYGMHWVRQAPGKGLEWVAVIWYDGRNKYYADSVKGRFTISRDNSKNTLYLQMNSLRAEDTAVYYCTRDHSGSGSYYIDYWGQGTLVTVSSASTKGPSVFPLAPSSKSTSGGTAALGCLVKDYFPEPVTVSWNSGALTSGVHTFPAVLQSSGLYSLSSVVTVPSSSLGTQTYICNVNHKPSNTKVDKKVEPKSCDKTHTCPPCPAPEAAGGPSVFLFPPKPKDTLMISRTPEVTCVVVDVSHEDPEVKFNWYVDGVEVHNAKTKPREEQYGSTYRVVSVLTVLHQDWLNGKEYKCKVSNKALPAPIEKTISKAKGQPREPQVYTLPPSRDELTKNQVSLSCAVKGFYPSDIAVEWESNGQPENNYKTTPPVLDSDGSFFLVSKLTVDKSRWQQGNVFSCSVMHEALHNHYTQKSLSLSPGK
chain 2: EIAMTQSPATLSVSPGERATLSCRASQSVSSNLAWYQQKPGQAPRLLIYGASTRATGLPARFSGSGSGTEFTLTISSLQSEDFAVYYCQQYNNFWTFGQGTKVEIKRTVAAPSVFIFPPSDEQLKSGTASVVCLLNNFYPREAKVQWKVDNALQSGNSQESVTEQDSKDSTYSLSSTLTLSKADYEKHKVYACEVTHQGLSSPVTKSFNRGEC
chain 3: EVQLVESGGGLIQPGGSLRLSCAASGFTFNGYAMNWVRQAPGKGLEWVARIRSKYNNYATYYADSVKDRFTISRDDSKSTLYLQMNNLRAEDTAVYYCVRHGNFGNSYVSWFAYWGQGTLVTVSSGKPGSGKPGSGKPGSGKPGSQAVVTQEPSLTVSPGGTVTLTCRSSTGAVTTSNYANWVQQKPGQAPRGLIGGTNKRAPGTPARFSGSLLGDKAALTLSGAQPEDEAEYYCALWYSNLWVFGGGTKVTVL[human IgG1 Fc with C220S L234A L235A N297G T366W (EU numbers) cut from this listing]
B2: BTE-0031 (bispecific antibody)
chain 1: QVQLVESGGGVVQPGGSLRLSCAASGFTFSSYGMHWVRQAPGKGLEWVAVIWYDGRNKYYADSVKGRFTISRDNSKNTLYLQMNSLRAEDTAVYYCTRDHSGSGSYYIDYWGQGTLVTVSSASTKGPSVFPLAPSSKSTSGGTAALGCLVKDYFPEPVTVSWNSGALTSGVHTFPAVLQSSGLYSLSSVVTVPSSSLGTQTYICNVNHKPSNTKVDKKVEPKSCDKTHTCPPCPAPEAAGGPSVFLFPPKPKDTLMISRTPEVTCVVVDVSHEDPEVKFNWYVDGVEVHNAKTKPREEQYGSTYRVVSVLTVLHQDWLNGKEYKCKVSNKALPAPIEKTISKAKGQPREPQVYTLPPSRDELTKNQVSLSCAVKGFYPSDIAVEWESNGQPENNYKTTPPVLDSDGSFFLVSKLTVDKSRWQQGNVFSCSVMHEALHNHYTQKSLSLSPGK
chain 2: EIAMTQSPATLSVSPGERATLSCRASQSVSSNLAWYQQKPGQAPRLLIYGASTRATGLPARFSGSGSGTEFTLTISSLQSEDFAVYYCQQYNNFWTFGQGTKVEIKRTVAAPSVFIFPPSDEQLKSGTASVVCLLNNFYPREAKVQWKVDNALQSGNSQESVTEQDSKDSTYSLSSTLTLSKADYEKHKVYACEVTHQGLSSPVTKSFNRGEC
chain 3: EVQLVESGGGLIQPGGSLRLSCAASGFTFNTYAMNWVRQAPGKGLEWVARIRSKYNNYATYYADSVKDRFTISRDDSKSTLYLQMNNLRAEDTAVYYCVRHGNFGNEYVSWFAYWGQGTLVTVSSGKPGSGKPGSGKPGSGKPGSQAVVTQEPSLTVSPGGTVTLTCRSSTGAVTTSNYANWVQQKPGQAPRGLIGGTNKRAPGTPARFSGSLLGDKAALTLSGAQPEDEAEYYCALWYSNLWVFGGGTKVTVL[human IgG1 Fc with C220S L234A L235A N297G T366W (EU numbers) cut from this listing]
B3: BTE-0033 (bispecific antibody)
chain 1: QVQLVESGGGVVQPGGSLRLSCAASGFTFSSYGMHWVRQAPGKGLEWVAVIWYDGRNKYYADSVKGRFTISRDNSKNTLYLQMNSLRAEDTAVYYCTRDHSGSGSYYIDYWGQGTLVTVSSASTKGPSVFPLAPSSKSTSGGTAALGCLVKDYFPEPVTVSWNSGALTSGVHTFPAVLQSSGLYSLSSVVTVPSSSLGTQTYICNVNHKPSNTKVDKKVEPKSCDKTHTCPPCPAPEAAGGPSVFLFPPKPKDTLMISRTPEVTCVVVDVSHEDPEVKFNWYVDGVEVHNAKTKPREEQYGSTYRVVSVLTVLHQDWLNGKEYKCKVSNKALPAPIEKTISKAKGQPREPQVYTLPPSRDELTKNQVSLSCAVKGFYPSDIAVEWESNGQPENNYKTTPPVLDSDGSFFLVSKLTVDKSRWQQGNVFSCSVMHEALHNHYTQKSLSLSPGK
chain 2: EIAMTQSPATLSVSPGERATLSCRASQSVSSNLAWYQQKPGQAPRLLIYGASTRATGLPARFSGSGSGTEFTLTISSLQSEDFAVYYCQQYNNFWTFGQGTKVEIKRTVAAPSVFIFPPSDEQLKSGTASVVCLLNNFYPREAKVQWKVDNALQSGNSQESVTEQDSKDSTYSLSSTLTLSKADYEKHKVYACEVTHQGLSSPVTKSFNRGEC
chain 3: EVQLVESGGGLIQPGGSLRLSCAASGFTFNTYAMNWVRQAPGKGLEWVARIRSKYNNYATYYADSVKDRFTISRDDSKSTLYLQMNNLRAEDTAVYYCVRHGNFGNAYVSWFAYWGQGTLVTVSSGKPGSGKPGSGKPGSGKPGSQAVVTQEPSLTVSPGGTVTLTCRSSTGAVTTSNYANWVQQKPGQAPRGLIGGTNKRAPGTPARFSGSLLGDKAALTLSGAQPEDEAEYYCALWYSNLWVFGGGTKVTVL[human IgG1 Fc with C220S L234A L235A N297G T366W (EU numbers) cut from this listing]
B4: BTE-0032 (bispecific antibody)
chain 1: QVQLVESGGGVVQPGGSLRLSCAASGFTFSSYGMHWVRQAPGKGLEWVAVIWYDGRNKYYADSVKGRFTISRDNSKNTLYLQMNSLRAEDTAVYYCTRDHSGSGSYYIDYWGQGTLVTVSSASTKGPSVFPLAPSSKSTSGGTAALGCLVKDYFPEPVTVSWNSGALTSGVHTFPAVLQSSGLYSLSSVVTVPSSSLGTQTYICNVNHKPSNTKVDKKVEPKSCDKTHTCPPCPAPEAAGGPSVFLFPPKPKDTLMISRTPEVTCVVVDVSHEDPEVKFNWYVDGVEVHNAKTKPREEQYGSTYRVVSVLTVLHQDWLNGKEYKCKVSNKALPAPIEKTISKAKGQPREPQVYTLPPSRDELTKNQVSLSCAVKGFYPSDIAVEWESNGQPENNYKTTPPVLDSDGSFFLVSKLTVDKSRWQQGNVFSCSVMHEALHNHYTQKSLSLSPGK
chain 2: EIAMTQSPATLSVSPGERATLSCRASQSVSSNLAWYQQKPGQAPRLLIYGASTRATGLPARFSGSGSGTEFTLTISSLQSEDFAVYYCQQYNNFWTFGQGTKVEIKRTVAAPSVFIFPPSDEQLKSGTASVVCLLNNFYPREAKVQWKVDNALQSGNSQESVTEQDSKDSTYSLSSTLTLSKADYEKHKVYACEVTHQGLSSPVTKSFNRGEC
chain 3: EVQLVESGGGLIQPGGSLRLSCAASGFTFNTYAMNWVRQAPGKGLEWVARIRSKYNNYATYYADSVKDRFTISRDDSKSTLYLQMNNLRAEDTAVYYCVRHGNFGNPYVSWFAYWGQGTLVTVSSGKPGSGKPGSGKPGSGKPGSQAVVTQEPSLTVSPGGTVTLTCRSSTGAVTTSNYANWVQQKPGQAPRGLIGGTNKRAPGTPARFSGSLLGDKAALTLSGAQPEDEAEYYCALWYSNLWVFGGGTKVTVL[human IgG1 Fc with C220S L234A L235A N297G T366W (EU numbers) cut from this listing]
B5: BTE-0035 (bispecific antibody)
chain 1: QVQLVESGGGVVQPGGSLRLSCAASGFTFSSYGMHWVRQAPGKGLEWVAVIWYDGRNKYYADSVKGRFTISRDNSKNTLYLQMNSLRAEDTAVYYCTRDHSGSGSYYIDYWGQGTLVTVSSASTKGPSVFPLAPSSKSTSGGTAALGCLVKDYFPEPVTVSWNSGALTSGVHTFPAVLQSSGLYSLSSVVTVPSSSLGTQTYICNVNHKPSNTKVDKKVEPKSCDKTHTCPPCPAPEAAGGPSVFLFPPKPKDTLMISRTPEVTCVVVDVSHEDPEVKFNWYVDGVEVHNAKTKPREEQYGSTYRVVSVLTVLHQDWLNGKEYKCKVSNKALPAPIEKTISKAKGQPREPQVYTLPPSRDELTKNQVSLSCAVKGFYPSDIAVEWESNGQPENNYKTTPPVLDSDGSFFLVSKLTVDKSRWQQGNVFSCSVMHEALHNHYTQKSLSLSPGK
chain 2: EIAMTQSPATLSVSPGERATLSCRASQSVSSNLAWYQQKPGQAPRLLIYGASTRATGLPARFSGSGSGTEFTLTISSLQSEDFAVYYCQQYNNFWTFGQGTKVEIKRTVAAPSVFIFPPSDEQLKSGTASVVCLLNNFYPREAKVQWKVDNALQSGNSQESVTEQDSKDSTYSLSSTLTLSKADYEKHKVYACEVTHQGLSSPVTKSFNRGEC
chain 3: EVQLVESGGGLIQPGGSLRLSCAASGFTFNTYAMNWVRQAPGKGLEWVARIRSKYNNYATYYADSVKDRFTISRDDSKSTLYLQMNNLRAEDTAVYYCVRHGNFGNFYVSWFAYWGQGTLVTVSSGKPGSGKPGSGKPGSGKPGSQAVVTQEPSLTVSPGGTVTLTCRSSTGAVTTSNYANWVQQKPGQAPRGLIGGTNKRAPGTPARFSGSLLGDKAALTLSGAQPEDEAEYYCALWYSNLWVFGGGTKVTVL[human IgG1 Fc with C220S L234A L235A N297G T366W (EU numbers) cut from this listing]

The binders below were run against T1, CD3εδ complex protein (human; alpaca, UniProt P07766 23-126; P04234 22-105) (assay: ELISA, CD3 complex immobilized).
UniProt P07766, sequence (P07766 23-126 limits assumed, stated change not applied, form in doubt, chain 1 of 2): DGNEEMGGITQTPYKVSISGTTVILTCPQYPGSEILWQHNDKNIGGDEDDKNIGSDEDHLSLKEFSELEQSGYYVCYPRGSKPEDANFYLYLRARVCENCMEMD
UniProt P07766, sequence (P04234 22-105 limits assumed, stated change not applied, form in doubt, chain 2 of 2, further chain): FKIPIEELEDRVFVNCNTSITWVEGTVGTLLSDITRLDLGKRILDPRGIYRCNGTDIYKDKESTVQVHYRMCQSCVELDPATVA
T1 construct: they are not part of the secreted protein; also called human CD3; CD386 complex protein
Procedure: Binding activities of the anti-TSPAN8/anti-CD3 bispecific antibodies BTE-0001 to BTE-0067 to CD3 were evaluated by the ELISA. ELISA was performed according to a conventional method. The […] complex protein obtained in Example 1-3 was immobilized on a plate. BTE-0001 to BTE-0067 were used as the test antibodies. As a secondary antibody, Goat anti-Human IgG Fc, Multi-Species SP ads-HRP (2014-05, available from SouthernBiotech) was used. TMB+Substrate-Chromogen (S1599, available from Dako) was used as the detection reagent. Infinite M200pro (available from Tecan) was used to measure the absorbance. The EC50 values were calculated using variable slope model (four parameters) in GraphPad Prism with the maximum value in the same plate fixed at the top and the minimum value in the blank in the same plate fixed at the bottom. Since BTE-0001 was always measured in each plate as a control, only the EC50 value of BTE-0001 was expressed as the average value of a plurality of plates.
Work on B1 yielded an EC50 of 0.00767 µg/mL. For B2, the EC50 was 0.0174 µg/mL. With B3 the EC50 was 0.0104 µg/mL. With B4 the EC50 was 0.255 µg/mL. With B5 the EC50 was 0.0875 µg/mL.
